This note sets out measurements from PubChem BioAssay (NCI).

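A five-concentration, 48-hour dose response in 96-well plates underlies each endpoint, interpolated linearly between surrounding concentrations. At the GI50, growth is halved. The concentration for full growth arrest is given as TGI.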

For this experiment, the system named is NCI-H322M lung. Nature of the experiment: DTP human tumour cell line panel, 48 h.
With `CN(C)CCCNc1c2ccc(Cl)cc2nc2c1oc1ccccc12`, the GI50 is 2.45 µM and the TGI amounted to 9.44 µM.

For `CCNCCOc1ccc(/C(=C(/CC)c2ccc(Cl)cc2)c2ccc(OCCCN(C)C)cc2)cc1`, the GI50 was 3.84 µM and the TGI stood at 7.32 µM.

In the case of `CC(=O)Nc1cc(F)cc(-c2ccc3[nH]cc(-c4ccccc4)c3n2)c1`, the GI50 is 4.14 µM and the TGI turned out to be 16 µM.

Consider `COc1ccc(/C=N/NC(=O)c2[nH]c3ccc(Br)cc3c2-c2ccccc2)s1`, for which the GI50 was 0.365 µM and the TGI was over 100 µM.
